For 41 compounds, inhibition results are on record in ChEMBL document CHEMBL5606458, “ASAP - ZIKV NS2B-NS3 protease fluorescence single point” (2024).

This test deals with Nonstructural protein 3 (Zika virus) (UniProt A0A024AXB9).
Where [1] appears, read: PRVABC59, Concentration 15.0 uM, Number of replicates 1.0.
Setting [2] is: PRVABC59, Concentration 10.0 uM, Number of replicates 1.0.
Where [3] appears, read: PRVABC59, Concentration 50.0 uM, Number of replicates 1.0.

Hit rate of the full screen: of about 2,700 compounds, about 160 (5.9%) showed an effect of 50% or more. This is one part of the list.

Chain of UniProt A0A024AXB9 (A0A024AXB9 as listed by the source): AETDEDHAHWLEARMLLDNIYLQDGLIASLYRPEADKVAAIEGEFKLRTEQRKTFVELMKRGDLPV

For the compound `O=C(NCc1ccc(Cl)cc1F)c1cc(Cl)ccc1NS(=O)(=O)c1ccc(Oc2ccccc2Cl)cc1`, the inhibition (commonly the relative decrease from the control value, in per cent) under setting [1] turned out to be 29.4%.
Turning to `O=C(NCc1ccc(F)cc1C(F)(F)F)c1cc(Cl)ccc1NS(=O)(=O)c1ccc(Oc2ccccc2Cl)cc1`, under setting [1], the inhibition turned out to be 32.6%.
For the compound `Cc1cc(CO)c2cccc(Cc3cccc(C(=O)Nc4nonc4C(N)=O)c3)c2n1`, the inhibition (PRVABC59, Concentration 49.95 uM, Number of replicates 2.0, Standard deviation 1.609742570683987 %) is 20.1% and the inhibition (PRVABC59, Concentration 99.9 uM, Number of replicates 2.0, Standard deviation 0.8074931564941592 %) was 55.3%.
`O=C(NCc1ccc(F)c(Br)c1)c1cc(Cl)ccc1NS(=O)(=O)c1ccc(Oc2ccccc2Cl)cc1`: the inhibition under setting [1] was determined as 31.4%.
As for `CN(C)c1ccc(CNC(=O)C2CCN(c3ccc(C=O)cc3)CC2)cc1`, the inhibition under setting [2] came out at 25.9%.
Take `O=C(Nc1ccc(Cl)c(Cl)c1)c1cc(Cl)ccc1NS(=O)(=O)c1ccc(Oc2ccccc2Cl)cc1`: the inhibition under setting [1] stood at 37.7%.
Consider `Cc1cc(CO)c2cccc(Cc3ccccc3C(=O)N[C@H](Cc3c[nH]cn3)C(=O)O)c2n1`, for which the inhibition reads like this: (PRVABC59, Concentration 49.95 uM, Number of replicates 2.0, Standard deviation 0.8913883129164283 %) -9.87%; (PRVABC59, Concentration 99.9 uM, Number of replicates 2.0, Standard deviation 0.26741635900501326 %) -7.8%.
Regarding `O=C(NCc1ccc(C(F)(F)F)nc1)c1cc(Cl)ccc1NS(=O)(=O)c1ccc(Oc2ccccc2Cl)cc1`, the inhibition under setting [1] was determined as 26.3%.
On the same count and under the same terms, the same measure for `CN(C(=O)c1cc(Cl)ccc1NS(=O)(=O)c1ccc(Oc2ccccc2Cl)cc1)[C@H]1CCN(Cc2ccccc2)C1`: 18.4%.
On to `O=Cc1ccc(N2CCC(C(=O)N3CCOCC3)CC2)cc1`, for which the inhibition under setting [3] is 23.9%.
Turning to `O=C(NCc1cc(F)c(F)cc1F)c1cc(Cl)ccc1NS(=O)(=O)c1ccc(Oc2ccccc2Cl)cc1`, the inhibition under setting [1] was 35.4%.
In the case of `CCCCCC(=O)N[C@H](C(=O)N1CCC[C@@H](CN)C1)c1ccc(OCc2ccccc2)cc1`, the inhibition (PRVABC59, Concentration 49.5 uM, Number of replicates 2.0, Standard deviation 1.3961060118473596 %) was found to be 1.56%; the inhibition (PRVABC59, Concentration 99.01 uM, Number of replicates 2.0, Standard deviation 1.8906395148915127 %) was determined as 3.7%; the inhibition (PRVABC59, Concentration 198.0 uM, Number of replicates 2.0, Standard deviation 0.7113673218088168 %) stood at 9.74%.
In the case of `O=C(N[C@H]1CCOc2ccc(F)cc21)c1cc(Cl)ccc1NS(=O)(=O)c1ccc(Oc2ccccc2Cl)cc1`, the inhibition under setting [1] amounted to 41.9%.
For the compound `O=Cc1ccc(N2CCC(C(=O)N3CCN(Cc4ccc(C(F)(F)F)cc4)CC3)CC2)cc1`, the inhibition under setting [3] was found to be 23.6%.
On to `C[C@@H](NC(=O)C1CCN(c2ccc(C=O)cc2)CC1)c1cccc(Br)c1`, for which the inhibition under setting [2] turned out to be 5.69%.
`CNC(=O)c1cc(Cl)ccc1NC(=O)c1ccc(Oc2ccccc2)cc1`: the inhibition is 0.54% (PRVABC59, Concentration 49.5 uM, Number of replicates 2.0, Standard deviation 3.5910316959401247 %) and -4.16% (PRVABC59, Concentration 99.01 uM, Number of replicates 2.0, Standard deviation 4.1090108164613115 %).
Regarding `CCN(CC)S(=O)(=O)c1ccc(NC(=O)C2CCN(c3ccc(C=O)cc3)CC2)cc1`, under setting [3], the inhibition was found to be 23.8%.
Same read-out and setting: as for `CN(C(=O)C1CCN(c2ccc(C=O)cc2)CC1)C(c1ccccc1)c1ccccc1`, the figure is 23%; as for `CCCN(C(=O)C1CCN(c2ccc(C=O)cc2)CC1)[C@@H](C)C(=O)Nc1ccccc1C`, 11.6%.
Turning to `O=Cc1ccc(N2CCC(C(=O)NCc3cccc(Br)c3)CC2)cc1`, under setting [2], the inhibition was 15.6%.
As for `Oc1ccc(CN2CC[C@H](c3c[nH]c4ccccc34)C2)cn1`, the inhibition was -2.83% (PRVABC59, Concentration 49.5 uM, Number of replicates 2.0, Standard deviation 2.050228303896922 %); -0.305% (PRVABC59, Concentration 99.01 uM, Number of replicates 2.0, Standard deviation 2.544819210948747 %); 4.13% (PRVABC59, Concentration 198.0 uM, Number of replicates 2.0, Standard deviation 1.9255234498796154 %).
As for `C[C@H]1CN(C(=O)OC(C)(C)C)CCN1C(=O)C1CCN(c2ccc(C=O)cc2)CC1`, under setting [3], the inhibition was 20.9%.
For `CCCCCC(=O)N[C@H](C(=O)Nc1ccc(C(N)=O)cc1)c1ccc(OCc2ccccc2)cc1`, the inhibition (PRVABC59, Concentration 49.5 uM, Number of replicates 2.0, Standard deviation 0.24855825740099582 %) worked out at 1.21%; the inhibition (PRVABC59, Concentration 99.01 uM, Number of replicates 2.0, Standard deviation 0.07456746879092904 %) stood at 1.42%; the inhibition (PRVABC59, Concentration 198.0 uM, Number of replicates 2.0, Standard deviation 1.8269031118183072 %) is -0.013%.
Take `CC(=O)Nc1ccc(C(=O)Nc2cccc3c(CO)cc(C)nc23)cn1`: the inhibition (PRVABC59, Concentration 49.95 uM, Number of replicates 2.0, Standard deviation 3.201576439673513 %) was determined as 4.07% and the inhibition (PRVABC59, Concentration 99.9 uM, Number of replicates 2.0, Standard deviation 1.5756980323308272 %) was found to be 14.8%.
As for `Cc1cc(CO)c2cccc(Cc3ccccc3C(=O)Nc3cc(C)[nH]n3)c2n1`, the inhibition worked out at 2.34% (PRVABC59, Concentration 49.95 uM, Number of replicates 2.0, Standard deviation 0.3827726205541183 %) and 6.09% (PRVABC59, Concentration 99.9 uM, Number of replicates 2.0, Standard deviation 0.9647966590796107 %).
As for `CN1CCN(c2ccc(CCNc3ccccc3F)cc2)CC1`, the inhibition was -2.52% (PRVABC59, Concentration 49.5 uM, Number of replicates 2.0, Standard deviation 1.9478024425898681 %); 0.143% (PRVABC59, Concentration 99.01 uM, Number of replicates 2.0, Standard deviation 0.3514217136310701 %); -0.82% (PRVABC59, Concentration 198.0 uM, Number of replicates 2.0, Standard deviation 1.9900275999452952 %).
In the case of `Cc1cc(CO)c2cccc(Cc3cccc(C(=O)NCCN4CCOCC4)c3)c2n1`, the inhibition reads like this: (PRVABC59, Concentration 49.95 uM, Number of replicates 2.0, Standard deviation 1.0591793001105425 %) -8.9%; (PRVABC59, Concentration 99.9 uM, Number of replicates 2.0, Standard deviation 2.5588083400253914 %) -9.57%.
For `O=C(NCc1cccc(F)c1Cl)c1cc(Cl)ccc1NS(=O)(=O)c1ccc(Oc2ccccc2Cl)cc1`, the inhibition under setting [1] came to 25.6%.
On the same count and under the same terms, as for `O=C(NCCN1C(=O)c2ccccc2C1=O)c1cc(Cl)ccc1NS(=O)(=O)c1ccc(Oc2ccccc2Cl)cc1`, the figure is 15.8%.
In the case of `CC(C)(COC(=O)c1cncc(N2CCOCC2)c1)NC(=O)c1cc(N)cc(Cl)c1`, the inhibition is, setting by setting: (PRVABC59, Concentration 49.5 uM, Number of replicates 2.0, Standard deviation 3.2630806613558843 %) 2.65%; (PRVABC59, Concentration 99.01 uM, Number of replicates 2.0, Standard deviation 2.470164076712915 %) 8.01%; (PRVABC59, Concentration 198.0 uM, Number of replicates 2.0, Standard deviation 2.2058581551280056 %) 13.6%.
Take `O=Cc1ccc(N2CCC(C(=O)Nc3cc(Cl)c(O)c(Cl)c3)CC2)cc1`: the inhibition under setting [3] was determined as 98.7%.
Consider `Cc1cc(CO)c2cccc(NC(=O)C3CCN(C)CC3)c2n1`, for which the inhibition was found to be 1.89% (PRVABC59, Concentration 49.95 uM, Number of replicates 2.0, Standard deviation 2.9039680698338874 %) and 29.5% (PRVABC59, Concentration 99.9 uM, Number of replicates 2.0, Standard deviation 2.0814932575907883 %).
With `c1ccn2c(CNCc3csc(C4CC4)c3)nnc2c1`, the inhibition by setting is: (PRVABC59, Concentration 49.5 uM, Number of replicates 2.0, Standard deviation 0.9921119894526725 %) -1.21%; (PRVABC59, Concentration 99.01 uM, Number of replicates 2.0, Standard deviation 0.6053564495674263 %) -2.2%; (PRVABC59, Concentration 198.0 uM, Number of replicates 2.0, Standard deviation 0.9097162071661786 %) -1.78%.
Consider `O=C(Nc1cc(C(F)(F)F)ccc1N1CCCC1)c1cc(Cl)ccc1NS(=O)(=O)c1ccc(Oc2ccccc2Cl)cc1`, for which, under setting [1], the inhibition was 27.7%.
On to `O=Cc1ccc(N2CCC(C(=O)NCCCOCCOCCO)CC2)cc1`, for which the inhibition under setting [3] stood at 22.5%.
For `O=C(c1cc(Cl)ccc1NS(=O)(=O)c1ccc(Oc2ccccc2Cl)cc1)N1CC=C(c2ccccc2)CC1`, the inhibition under setting [1] is -1.1%.
Turning to `O=C(NCCc1cncnc1)c1cn([C@H]2CCCNC2)nn1`, the inhibition by setting is: (PRVABC59, Concentration 49.5 uM, Number of replicates 2.0, Standard deviation 1.9755922648176436 %) -1.34%; (PRVABC59, Concentration 99.01 uM, Number of replicates 2.0, Standard deviation 2.2473128259458055 %) -2.27%; (PRVABC59, Concentration 198.0 uM, Number of replicates 2.0, Standard deviation 2.3760225788757383 %) -2.12%.
Regarding `CCCCCC(=O)N[C@@H](CC(C)C)C(=O)NCc1cccc(CN)c1`, the inhibition reads like this: (PRVABC59, Concentration 49.5 uM, Number of replicates 2.0, Standard deviation 0.4619563493687485 %) -1.54%; (PRVABC59, Concentration 99.01 uM, Number of replicates 2.0, Standard deviation 0.9009194855323789 %) -2.09%; (PRVABC59, Concentration 198.0 uM, Number of replicates 2.0, Standard deviation 0.03971564970139162 %) -1.7%.
As to `CC(C)(C)OC(=O)NCc1cccc(NC(=O)[C@@H](N)c2ccc(OCc3ccccc3)cc2)c1`, the inhibition (PRVABC59, Concentration 49.5 uM, Number of replicates 2.0, Standard deviation 2.056917430224086 %) stood at 4.5%; the inhibition (PRVABC59, Concentration 99.01 uM, Number of replicates 2.0, Standard deviation 1.8280366091621592 %) turned out to be 5.34%; the inhibition (PRVABC59, Concentration 198.0 uM, Number of replicates 2.0, Standard deviation 0.2620084125788834 %) turned out to be 6.2%.
In the case of `CN1CCN(c2ccccc2NC(=O)C2CCN(c3ccc(C=O)cc3)CC2)CC1`, the inhibition under setting [3] was 22.1%.
As for `O=C(c1cc(Cl)ccc1NS(=O)(=O)c1ccc(Oc2ccccc2Cl)cc1)N1CCN(C(=O)C(F)(F)F)CC1`, under setting [1], the inhibition was 3.42%.
